Experimental data taken from the antibiotic and cytotoxicity screens of Wong et al. (2023).
The other results are listed elsewhere or left out.

Tests used:
HSkMC = human skeletal muscle cells; assay: cytotoxicity call (relative viability < 0.9); conditions: 10 µM
HepG2 = assay: cytotoxicity call (relative viability < 0.9); conditions: 10 µM
S. aureus RN4220 = assay: growth inhibition call (relative growth <= 0.2); conditions: 50 µM

COc1nc(N)nc2nc[nH]c12
inactive: cytotoxicity call (HSkMC) | cytotoxicity call (HepG2) | growth inhibition call (S. aureus RN4220)

Cc1noc(C)c1S(=O)(=O)Nc1ccc2c(c1)C(=O)N([C@H](C)CO)C[C@H](C)[C@H](CN(C)S(C)(=O)=O)O2
inactive: cytotoxicity call (HSkMC) | cytotoxicity call (HepG2) | growth inhibition call (S. aureus RN4220)

C[C@@H]1CCCCO[C@H](CN(C)Cc2ccc(C(F)(F)F)cc2)[C@@H](C)CN([C@H](C)CO)C(=O)c2cc(NC(=O)CCC(F)(F)F)ccc2O1
inactive: cytotoxicity call (HSkMC) | cytotoxicity call (HepG2) | growth inhibition call (S. aureus RN4220)

Cc1noc(C)c1NC(=O)N(C)C[C@H]1OCCCC[C@@H](C)Oc2ccc(NC(=O)C3CCCCC3)cc2C(=O)N([C@H](C)CO)C[C@@H]1C
inactive: cytotoxicity call (HSkMC) | cytotoxicity call (HepG2) | growth inhibition call (S. aureus RN4220)

C[C@H](CO)N1C[C@H](C)[C@@H](CN(C)Cc2ccc(C(F)(F)F)cc2)Oc2c(NC(=O)NC3CCCCC3)cccc2C1=O
inactive: cytotoxicity call (HSkMC) | cytotoxicity call (HepG2) | growth inhibition call (S. aureus RN4220)

CCN(CC)C[C@@H](O)CN
inactive: cytotoxicity call (HSkMC) | cytotoxicity call (HepG2) | growth inhibition call (S. aureus RN4220)
